According to the supplement of paper PMC4967469:
The IC50 comes from the fitted curve, where viability falls to half of the control; a fit beyond the top or the lowest dose is shown as a bound at that dose. The AUC spans the tested range (256-fold, ending at the top dose) of the same fit; the more sensitive the line, the further below 1.

The cell lines below were run with CC[C@H](Nc1ncnc2[nH]cnc12)c1nc2cccc(F)c2c(=O)n1-c1ccccc1 [CAL-101] (assay: Viability of human cancer cell lines after 72 h of drug (GDSC screen)).
Procedure: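 Human cancer cell lines in 384-well plates, medium with 10% serum, drug for 72 h over a 256-fold dose range (nine 2-fold or five 4-fold steps up to the top dose). Adherent lines were fixed and stained with the nucleic acid dye Syto60, suspension lines read with resazurin; signal relative to control wells, capped at 0 and 100%. One two-parameter sigmoid per drug and line, fitted in a mixed model over all curves with the slope shared within a line.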
With “BL-41 (Burkitt lymphoma, suspension, top dose 20 µM)” the AUC was 0.723 and the IC50 was 4.47 µM. Work on “BPH-1 (prostate, adherent, top dose 20 µM)” yielded an AUC of 0.757 and an IC50 of 7.55 µM. In the case of “BT-20 (breast, adherent, top dose 20 µM)”, the AUC is reported as 0.98 and the IC50 is reported as > 20 µM. For “BT-474 (breast, adherent, top dose 20 µM)”, the AUC was 0.933 and the IC50 was > 20 µM. In the case of “BT-483 (breast, adherent, top dose 20 µM)”, the AUC is reported as 0.926 and the IC50 is reported as > 20 µM. For “BV-173 (chronic myeloid leukaemia, suspension, top dose 20 µM)”, the AUC was 0.961 and the IC50 was > 20 µM. In the case of “Becker (glioma, adherent, top dose 20 µM)”, the AUC is reported as 0.866 and the IC50 is reported as > 20 µM. For “BxPC-3 (pancreas, adherent, top dose 20 µM)”, the AUC was 0.959 and the IC50 was > 20 µM. For “C2BBe1 (large intestine, adherent, top dose 20 µM)”, the AUC was 0.958 and the IC50 was > 20 µM. In the case of C3A (liver, adherent, top dose 20 µM), the AUC is reported as 0.986 and the IC50 is reported as > 20 µM. In the case of “C32 (melanoma, adherent, top dose 20 µM)”, the AUC is reported as 0.987 and the IC50 is reported as > 20 µM. “C-4-I (cervix, adherent, top dose 20 µM)” was tested, and the AUC was 0.986 and the IC50 was > 20 µM. For “C-33-A (cervix, adherent, top dose 20 µM)”, the AUC was 0.979 and the IC50 was > 20 µM. For “CA46 (Burkitt lymphoma, suspension, top dose 20 µM)”, the AUC was 0.872 and the IC50 was > 20 µM. For “CADO-ES1 (Ewing sarcoma, suspension, top dose 20 µM)”, the AUC was 0.94 and the IC50 was > 20 µM. For “CAKI-1 (kidney, adherent, top dose 20 µM)”, the AUC was 0.902 and the IC50 was > 20 µM. In the case of “CAL-12T (non-small cell lung carcinoma, adherent, top dose 20 µM)”, the AUC is reported as 0.924 and the IC50 is reported as > 20 µM. With “CAL-27 (head and neck, adherent, top dose 20 µM)” the AUC was 0.949 and the IC50 was > 20 µM. For “CAL-29 (bladder, adherent, top dose 20 µM)”, the AUC was 0.972 and the IC50 was > 20 µM. “CAL-33 (head and neck, adherent, top dose 20 µM)” was tested, and the AUC was 0.964 and the IC50 was > 20 µM. “CAL-39 (cervix, adherent, top dose 20 µM)” was tested, and the AUC was 0.983 and the IC50 was > 20 µM. In the case of “CAL-51 (breast, adherent, top dose 20 µM)”, the AUC is reported as 0.985 and the IC50 is reported as > 20 µM. With “CAL-54 (kidney, adherent, top dose 20 µM)” the AUC was 0.95 and the IC50 was > 20 µM. “CAL-62 (thyroid, adherent, top dose 20 µM)” was tested, and the AUC was 0.982 and the IC50 was > 20 µM. With “CAL-72 (osteosarcoma, adherent, top dose 20 µM)” the AUC was 0.984 and the IC50 was > 20 µM. With “CAL-78 (chondrosarcoma, adherent, top dose 20 µM)” the AUC was 0.986 and the IC50 was > 20 µM. In the case of “CAL-85-1 (breast, adherent, top dose 20 µM)”, the AUC is reported as 0.959 and the IC50 is reported as > 20 µM. “CAL-120 (breast, adherent, top dose 20 µM)” was tested, and the AUC was 0.903 and the IC50 was > 20 µM. With “CAL-148 (breast, suspension, top dose 20 µM)” the AUC was 0.987 and the IC50 was > 20 µM. With “CAMA-1 (breast, adherent, top dose 20 µM)” the AUC was 0.966 and the IC50 was > 20 µM. In the case of “CAPAN-1 (pancreas, adherent, top dose 20 µM)”, the AUC is reported as 0.969 and the IC50 is reported as > 20 µM. “CAS-1 (glioma, adherent, top dose 20 µM)” was tested, and the AUC was 0.98 and the IC50 was > 20 µM. With “CCF-STTG1 (glioma, adherent, top dose 20 µM)” the AUC was 0.98 and the IC50 was > 20 µM. “CCK-81 (large intestine, adherent, top dose 20 µM)” was tested, and the AUC was 0.94 and the IC50 was > 20 µM. “CCRF-CEM (lymphoblastic leukaemia, suspension, top dose 20 µM)” gave an AUC of 0.739 and an IC50 of 5.24 µM. Work on “CESS (acute myeloid leukaemia, suspension, top dose 20 µM)” yielded an AUC of 0.782 and an IC50 of 7.11 µM. In the case of “CFPAC-1 (pancreas, adherent, top dose 20 µM)”, the AUC is reported as 0.961 and the IC50 is reported as > 20 µM. For “CGTH-W-1 (thyroid, adherent, top dose 20 µM)”, the AUC was 0.974 and the IC50 was > 20 µM. With “CHL-1 (melanoma, adherent, top dose 20 µM)” the AUC was 0.897 and the IC50 was > 20 µM. For “CHP-134 (neuroblastoma, suspension, top dose 20 µM)”, the AUC was 0.98 and the IC50 was > 20 µM. Cell Line “CHP-212 (neuroblastoma, adherent, top dose 20 µM)” has an AUC of 0.878 and an IC50 of 17.6 µM. For “CHSA0011 (chondrosarcoma, adherent, top dose 20 µM)”, the AUC was 0.961 and the IC50 was > 20 µM. With “CHSA0108 (chondrosarcoma, adherent, top dose 20 µM)” the AUC was 0.98 and the IC50 was > 20 µM. For “CHSA8926 (chondrosarcoma, adherent, top dose 20 µM)”, the AUC was 0.922 and the IC50 was > 20 µM. With “CL-11 (large intestine, adherent, top dose 20 µM)” the AUC was 0.985 and the IC50 was > 20 µM. With “CMK (acute myeloid leukaemia, suspension, top dose 20 µM)” the AUC was 0.875 and the IC50 was 14.6 µM. For “COLO-205 (large intestine, suspension, top dose 20 µM)”, the AUC was 0.987 and the IC50 was > 20 µM. In the case of “COLO-320-HSR (large intestine, suspension, top dose 20 µM)”, the AUC is reported as 0.955 and the IC50 is reported as > 20 µM. For “COLO-668 (small cell lung carcinoma, adherent, top dose 20 µM)”, the AUC was 0.955 and the IC50 was > 20 µM. “COLO-678 (large intestine, semi-adherent, top dose 20 µM)” was tested, and the AUC was 0.982 and the IC50 was > 20 µM. “COLO-679 (melanoma, adherent, top dose 20 µM)” was tested, and the AUC was 0.957 and the IC50 was > 20 µM. In the case of “COLO-680N (oesophagus, adherent, top dose 20 µM)”, the AUC is reported as 0.978 and the IC50 is reported as > 20 µM. “COLO-684 (endometrium, suspension, top dose 20 µM)” was tested, and the AUC was 0.843 and the IC50 was 16.8 µM. With “COLO-783 (melanoma, adherent, top dose 20 µM)” the AUC was 0.99 and the IC50 was > 20 µM. With “COLO-792 (melanoma, adherent, top dose 20 µM)” the AUC was 0.966 and the IC50 was > 20 µM. With “COLO-800 (melanoma, adherent, top dose 20 µM)” the AUC was 0.983 and the IC50 was > 20 µM. With “COLO-824 (breast, adherent, top dose 20 µM)” the AUC was 0.961 and the IC50 was > 20 µM. In the case of “COLO-829 (melanoma, adherent, top dose 20 µM)”, the AUC is reported as 0.914 and the IC50 is reported as > 20 µM. For “COR-L23 (large cell lung carcinoma, adherent, top dose 20 µM)”, the AUC was 0.948 and the IC50 was > 20 µM. For “COR-L88 (small cell lung carcinoma, adherent, top dose 20 µM)”, the AUC was 0.979 and the IC50 was > 20 µM. With “COR-L95 (small cell lung carcinoma, adherent, top dose 20 µM)” the AUC was 0.97 and the IC50 was > 20 µM. In the case of “COR-L105 (lung adenocarcinoma, adherent, top dose 20 µM)”, the AUC is reported as 0.926 and the IC50 is reported as > 20 µM. Work on “COR-L279 (small cell lung carcinoma, suspension, top dose 20 µM)” yielded an AUC of 0.836 and an IC50 of 11.2 µM. With “COR-L303 (small cell lung carcinoma, suspension, top dose 20 µM)” the AUC was 0.947 and the IC50 was > 20 µM. In the case of “COR-L311 (small cell lung carcinoma, suspension, top dose 20 µM)”, the AUC is reported as 0.93 and the IC50 is reported as > 20 µM. With “COR-L321 (lung, suspension, top dose 20 µM)” the AUC was 0.969 and the IC50 was > 20 µM. “CP50-MEL-B (melanoma, adherent, top dose 20 µM)” was tested, and the AUC was 0.986 and the IC50 was > 20 µM. With “CP66-MEL (melanoma, adherent, top dose 20 µM)” the AUC was 0.984 and the IC50 was > 20 µM. In the case of “CPC-N (small cell lung carcinoma, suspension, top dose 20 µM)”, the AUC is reported as 0.961 and the IC50 is reported as > 20 µM. For CS1 (bone, adherent, top dose 20 µM), the AUC was 0.925 and the IC50 was > 20 µM. “CTB-1 (B-cell lymphoma, suspension, top dose 20 µM)” was tested, and the AUC was 0.979 and the IC50 was > 20 µM. In the case of “CTV-1 (acute myeloid leukaemia, suspension, top dose 20 µM)”, the AUC is reported as 0.943 and the IC50 is reported as > 20 µM. In the case of “CW-2 (large intestine, adherent, top dose 20 µM)”, the AUC is reported as 0.962 and the IC50 is reported as > 20 µM. “Ca9-22 (head and neck, adherent, top dose 20 µM)” was tested, and the AUC was 0.98 and the IC50 was > 20 µM. For “Ca-Ski (cervix, adherent, top dose 20 µM)”, the AUC was 0.876 and the IC50 was > 20 µM. With “CaR-1 (large intestine, adherent, top dose 20 µM)” the AUC was 0.953 and the IC50 was > 20 µM. In the case of “Calu-3 (lung adenocarcinoma, adherent, top dose 20 µM)”, the AUC is reported as 0.918 and the IC50 is reported as > 20 µM. In the case of “Calu-6 (lung adenocarcinoma, adherent, top dose 20 µM)”, the AUC is reported as 0.982 and the IC50 is reported as > 20 µM. “Caov-3 (ovary, adherent, top dose 20 µM)” was tested, and the AUC was 0.967 and the IC50 was > 20 µM. With “Caov-4 (ovary, adherent, top dose 20 µM)” the AUC was 0.858 and the IC50 was > 20 µM. “Capan-2 (pancreas, adherent, top dose 20 µM)” was tested, and the AUC was 0.97 and the IC50 was > 20 µM.
